# Measured values taken from PubChem BioAssay AID1030 (National Center for Advancing Translational Sciences (NCATS), 2008).
# Among all 220,000 compounds or so, about 16,000 (7.3%) were called active. This list was built around the results that the source calls inconclusive (neither active nor inactive); the mix of calls is not that of the screen. Calls follow the shape of the dose curve; as a rule, active = well fitted inhibition curve with a large enough effect (not every such curve was filed as active); inconclusive = small, poorly fitted or top-dose-only effect, or another doubt; inactive = no such curve, though single readings can be large or run the other way. No potency is given beside an inconclusive call; the fits are too rough.
# Target: Aldehyde dehydrogenase 1A1 (Homo sapiens) (UniProt P00352)
# Chain of UniProt P00352 (P00352 whole entry, looked up): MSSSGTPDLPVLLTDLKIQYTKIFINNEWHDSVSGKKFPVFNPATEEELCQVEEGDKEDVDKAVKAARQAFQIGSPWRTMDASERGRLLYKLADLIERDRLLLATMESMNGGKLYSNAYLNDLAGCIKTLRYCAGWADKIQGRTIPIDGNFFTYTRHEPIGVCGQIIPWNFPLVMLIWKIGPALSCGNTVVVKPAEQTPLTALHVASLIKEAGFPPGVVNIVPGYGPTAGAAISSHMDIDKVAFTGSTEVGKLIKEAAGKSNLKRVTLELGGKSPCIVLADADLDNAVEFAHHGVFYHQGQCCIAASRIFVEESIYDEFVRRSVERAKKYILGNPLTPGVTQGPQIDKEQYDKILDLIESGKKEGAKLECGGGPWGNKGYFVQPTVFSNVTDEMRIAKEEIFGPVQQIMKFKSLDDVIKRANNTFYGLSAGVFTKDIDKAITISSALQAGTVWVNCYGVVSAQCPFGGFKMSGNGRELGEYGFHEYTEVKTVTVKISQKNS
# Assay: qHTS Assay for Inhibitors of Aldehyde Dehydrogenase 1 (ALDH1A1);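 as to activity, negative = inhibition: plate controls were no enzyme wells and a reference inhibitor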
# Details: Purified ALDH1A1, NADH fluorescence, propionaldehyde substrate; series mostly up to 75.3 µM
# Potency is read from the fitted curve at half-maximal effect; tags tell the direction and shape of the fitted curve.
SMILES,Potency,"activity, negative = inhibition"
CCc1ccc(-c2csc(NC(=O)C3CC(=O)N(c4ccc5c(c4)OCCO5)C3)n2)cc1 (centres undefined),inactive,–
O=S(=O)(c1ccc(Cl)cc1)n1c(Cc2ccccc2)nc2ccccc21,inactive,–
COC(=O)[C@@]1(Cc2ccc(OC)cc2)[C@H]2c3cc(C(=O)N(C)C)n(Cc4nc5ccccc5[nH]4)c3C[C@H]2CN1C(=O)c1ccccc1,"inconclusive [inhibitor, single point]",–
O=C(CSc1nnc(NC2CCCCC2)s1)Nc1ccc2c(c1)C(=O)c1ccccc1C2=O,active: 12.6 µM,–
O=C(c1ccc(Oc2ccccc2)cc1)c1nc2c(n1O)CCCC2,"inconclusive [inhibitor, single point]",–
CCN(CC)CCNC1=CC(=O)OC12CCCCC2,inactive,–
CCOC(=O)c1sc(NC(=O)c2ccc3ncsc3c2)nc1C,"inconclusive [inhibitor, single point]",–
CCOc1ccccc1C(=O)NC1CC2CCCC(C1)N2C1CC1 (centres undefined),inactive,–
O=S(=O)(N/N=C1\CC(c2ccccc2)Oc2ccccc21)c1ccccc1 (centres undefined),"inconclusive [inhibitor, single point]",–
O=C(O)COc1ccc(/C=N/NC(=O)COc2nsnc2N2CCOCC2)cc1,"inconclusive [inhibitor, single point]",–
O=C(CCCN1C(=O)c2cccc3cccc(c23)C1=O)NCc1cccnc1,"inconclusive [inhibitor, single point]",–
CCc1nc2ccccc2c(C(=O)NCc2ccc(OC)cc2)c1C,"inconclusive [inhibitor, partial curve, poor fit]",–
CCCC1N2CC3([N+](=O)[O-])CN1CC([N+](=O)[O-])(C2)C3(C)C (centres undefined),"inconclusive [inhibitor, single point]",–
Cc1cc(=O)oc2cc(OC(=O)c3nn(C(C)C)c(=O)c4ccccc34)ccc12,"inconclusive [inhibitor, partial curve]",–
c1ccc(CSc2ccc(-c3ccco3)nn2)cc1,active: 39.8 µM,–
CCOc1cc(NC(=O)CCl)c(OCC)cc1NC(C)=O,active: 25.1 µM,–
CCn1c2ccccc2c2nnc(NCCCO)nc21,–,inactive: 1.86% [at 13.5 µM]
COc1cccc(OCCN2CCN(c3ncnc4c3cnn4-c3ccccc3)CC2)c1,"inconclusive [inhibitor, partial curve]",–
CCC12CN3CC(CC)(CN(C1)C3c1ccc(OC(C)C)cc1)C2=O (centres undefined),inactive,–
CN(CC(=O)NC1CCCCCCC1)S(=O)(=O)c1cnc[nH]1,inactive,–
COc1ccccc1OCC(=O)Nc1cccc(-c2nnc(-c3ccco3)o2)c1,"inconclusive [inhibitor, single point]",–
O=C(Nc1ccccc1C(=O)O)c1ccc(Br)o1,active: 3.98 µM,–
O=C(O)c1ccccc1SC1CC(=O)N(c2ccccc2)C1=O (centres undefined),active: 2.51 µM,–

SMILES,Potency,"activity, negative = inhibition"
CCOc1ccc(NC(=O)COC(=O)CCS(=O)(=O)c2ccc(C)cc2)cc1,"inconclusive [inhibitor, single point]",–
O=C(Nc1ccc2c(c1)OCCO2)C1CCN(C(=O)c2ccccc2)CC1,active: 14.1 µM,–
CCn1c(CSc2nc(C)cc(C)n2)nnc1SCC(=O)Nc1ccccc1,inactive,–
COc1ccc(C(=O)OCC(=O)NCC2CCCO2)cc1[N+](=O)[O-] (centres undefined),"inconclusive [inhibitor, partial curve]",–
O=C(NCc1ccoc1)c1ccc(NC(=O)c2ccccc2Cl)cc1,"inconclusive [inhibitor, single point]",–
CCN(CC)[C@@H](C)CN1c2ccccc2Sc2ccccc21,"inconclusive [inhibitor, single point]",–
O=C(Nc1ccccc1-c1ccccc1)c1ccc(Cl)c([N+](=O)[O-])c1,"inconclusive [inhibitor, partial curve]",–
COc1cccc(/C=c2/s/c(=C(\C#N)C(=O)N3CCOCC3)n(-c3ccccc3)c2=O)c1,"inconclusive [inhibitor, full curve, poor fit]",–
COc1ccc2[nH]c(C)cc(=O)c2c1,"inconclusive [inhibitor, partial curve]",–
OCC1(Cc2ccccc2)CCN(Cc2ccc(-c3ccco3)cc2)CC1,"inconclusive [inhibitor, single point]",–
CC1CC(C)CN(c2oc(-c3ccco3)nc2C#N)C1 (centres undefined),"inconclusive [inhibitor, partial curve]",–
CC1=C(C(=O)OCc2ccccc2)C(/C=C/c2ccccc2)N2C(=O)CCSC2=N1 (centres undefined),"inconclusive [inhibitor, single point]",–
COc1ccc(N2CCN(C(c3ccccc3OC)c3nnnn3Cc3ccco3)CC2)cc1 (centres undefined),"inconclusive [inhibitor, single point]",–
COc1cc(OC)c2c(C)cc(=O)oc2c1,"inconclusive [inhibitor, partial curve]",–
O=C(NCc1ccccc1)N(Cc1nc2ccccc2c(=O)[nH]1)C1CCCC1,"inconclusive [inhibitor, partial curve]",–
CCOC(=O)/C(O)=C/c1ncc(C(F)(F)F)cc1Cl,"inconclusive [inhibitor, single point]",–
CCCOC(=O)Nc1cc(OC)ccc1[N+](=O)[O-],inactive,–
C=CCn1c(NCc2ccc(N(C)C)cc2)nc2ccccc21,"inconclusive [inhibitor, single point]",–
CCN(CC(=O)Nc1ccc2c(c1)OC(F)(F)O2)Cc1nc2ccccc2c(=O)[nH]1,"inconclusive [inhibitor, single point]",–
Cc1ccc(-c2nn(-c3ccccc3)cc2C(=O)N2CCOCC2)cc1C,active: 10 µM,–
Cc1cc(C(=O)CN2C(=O)C(=O)N(C3CCCC3)C2=O)c(C)n1-c1ccc(F)cc1,"inconclusive [inhibitor, partial curve, poor fit]",–
C/C(=N\NC(=O)COc1ccc(C)cc1C(C)C)c1ccc(-n2ccnc2)cc1,inactive,–
CC(Sc1ccccc1)C(=O)NN=C1CCN(C)CC1 (centres undefined),"inconclusive [inhibitor, single point]",–

SMILES,Potency,"activity, negative = inhibition"
CCN1CCN(C(=O)c2ccc(-c3nc4ccccc4s3)s2)CC1,"inconclusive [inhibitor, single point]",–
COc1cc([C@@H]2c3cc4c(cc3[C@@H](O[C@@H]3O[C@H]5CO[C@@H](C)O[C@@H]5[C@@H](O)[C@H]3O)[C@@H]3COC(=O)[C@@H]23)OCO4)cc(OC)c1O,inactive,–
Cc1cccc(C)c1OCCCN1CCCC1,"inconclusive [inhibitor, single point]",–
Cc1cc(C)nc(N2CCC(C(=O)Nc3nnc(C)s3)CC2)n1,"inconclusive [inhibitor, single point]",–
CN(C)c1ccc(-c2nccc(NCc3cccs3)n2)cc1,"inconclusive [inhibitor, partial curve]",–
CCOC(=O)n1n[n+]([O-])c2ccccc21,inactive,–
Cc1ccc(NC(=O)NNc2cccc(Cl)n2)cc1,"inconclusive [inhibitor, partial curve]",–
COc1ccc(-c2cc(C(F)(F)F)c(C#N)c(SCC(=O)O)n2)cc1,"inconclusive [inhibitor, single point]",–
CC(C)NC(=O)CSCc1c(F)cccc1Cl,"inconclusive [inhibitor, single point]",–
O=C(Oc1cccc(NC(=O)c2ccccc2Cl)c1)c1ccc([N+](=O)[O-])cc1,"inconclusive [inhibitor, single point]",–
O=C(CSc1nc(-c2ccccc2)c(-c2ccccc2)o1)N1CCOCC1,"inconclusive [inhibitor, single point]",–
CCOC(=O)c1nn(-c2ccc(C)cc2)c2nc(Nc3ccccc3)cc(=O)n12,"inconclusive [inhibitor, single point]",–
COc1ccc(CCNC(=O)C23CN(Cc4ccccc4)CC2C(c2cccc([N+](=O)[O-])c2)=NO3)cc1 (centres undefined),active: 8.91 µM,–
CCN(CC)S(=O)(=O)c1ccc(C)c(N=C=S)c1,"inconclusive [inhibitor, partial curve, poor fit]",–
CCCCN1C(=O)C(NC(C)=O)c2ccccc21 (centres undefined),active: 0.112 µM,–
COCc1cc(C)nc2sc3c(=O)n(Cc4ccco4)nnc3c12,"inconclusive [inhibitor, single point]",–
COc1ccc(C2C=C(c3ccc(Br)cc3)Nc3nc(N4C(=O)CCC4=O)nn32)cc1 (centres undefined),"inconclusive [inhibitor, partial curve]",–
Cc1ccc(NC2c3ncccc3C(=O)N2Cc2ccc(F)cc2)cc1 (centres undefined),inactive,–
O=c1c2ccccc2nc(SCc2nc3ccccc3s2)n1CCCO,"inconclusive [inhibitor, partial curve]",–
Cc1ccc(S(=O)(=O)/C(=C/Cl)NC(=O)c2ccccc2)cc1,active: 7.94 µM,–
O=C(O)CCCn1cc(NC(=O)c2cc(F)c(F)cc2Cl)cn1,"inconclusive [inhibitor, single point]",–
CC(C)CSC1=NSC2=NC(=O)/C(=C\c3cccs3)C(=N)N12,"inconclusive [inhibitor, partial curve]",–
Cc1nn(Cc2ccc(F)cc2)c(C)c1NC(=O)c1cc(-c2ccco2)on1,"inconclusive [inhibitor, single point]",–
